# Assay results as given in the supplement of paper PMC8728848.
# This is one part of the list.
# B1: Apa (Mycobacterium tuberculosis), Rv1860 (protein)
# chain: MHQVDPNLTRRKGRLAALAIAAMASASLVTVAVPATANADPEPAPPVPTTAASPPSTAAAPPAPATPVAPPPPAAANTPNAQPGDPNAAPPPADPNAPPPPVIAPNAPQPVRIDNPVGGFSFALPAGWVESDAAHFDYGSALLSKTTGDPPFPGQPPPVANDTRIVLGRLDQKLYASAEATDSKAAARLGSDMGEFYMPYPGTRINQETVSLDANGVSGSASYYEVKFSDPSKPNGQIWTGVIGSPAANAPDAGPPQRWFVVWLGTANNPVDKGAAKALAESIRPLVAPPPAPAPAPAEPAPAPAPAGEVAPTPTTPTPQRTLPA
# Key:
# Assay in all cases: glycan array binding signal (z-score within array); higher = stronger binding
# Conditions in all cases: glycan notation: IUPAC condensed, linker removed
# [1] = molecular target: GlcNAc(b1-3)Gal(b1-4)GlcNAc(b1-3)Gal(b1-4)GlcNAc(b1-3)Gal(b1-4)GlcNAc(b1-3)Gal(b1-4)GlcNAc(b1-2)[GlcNAc(b1-3)Gal(b1-4)GlcNAc(b1-3)Gal(b1-4)GlcNAc(b1-3)Gal(b1-4)GlcNAc(b1-3)Gal(b1-4)GlcNAc(b1-6)]Man(a1-6)[GlcNAc(b1-3)Gal(b1-4)GlcNAc(b1-3)Gal(b1-4)GlcNAc(b1-3)Gal(b1-4)GlcNAc(b1-3)Gal(b1-4)GlcNAc(b1-2)Man(a1-3)]Man(b1-4)GlcNAc(b1-4)[Fuc(a1-6)]GlcNAc
# Procedure, shortened: (§1)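 Glycan array data were curated from 3228 arrays in the Consortium for Functional Glycomics database and kept only where the protein sequence was available. Glycan names were converted to IUPAC-condensed notation, and columns mapping to the same glycan were averaged. The binding signal is a within-array Z-score, averaged across arrays of the same protein sequence at different concentrations or buffers and across linkers. Negative Z-scores can be read as non-binding.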
# [2] = molecular target: GlcNAc(b1-3)Gal(b1-4)GlcNAc(b1-3)Gal(b1-4)GlcNAc(b1-3)GalNAc
# Procedure, shortened: as §1
# [3] = molecular target: GlcNAc(b1-3)Gal(b1-4)GlcNAc(b1-3)GalNAc
# Procedure, shortened: as §1
# [4] = molecular target: GlcNAc(b1-3)Gal(b1-4)GlcNAc(b1-3)[GlcNAc(b1-3)Gal(b1-4)GlcNAc(b1-3)]GalNAc
# Procedure, shortened: as §1
# [5] = molecular target: GlcNAc(b1-3)Gal(b1-4)GlcNAc(b1-6)[Gal(b1-3)]GalNAc
# Procedure, shortened: as §1
# [6] = molecular target: GlcNAc(b1-3)Gal(b1-4)GlcNAc(b1-6)[GlcNAc(b1-3)Gal(b1-3)]GalNAc
# Procedure, shortened: as §1
# [7] = molecular target: GlcNAc(b1-3)Gal(b1-4)GlcNAc(b1-6)[GlcNAc(b1-3)]Gal(b1-4)GlcNAc
# Procedure, shortened: as §1
# GlcNAc(b1-3)GalNAc = molecular target: GlcNAc(b1-3)GalNAc
# Procedure, shortened: as §1
# GlcNAc(b1-3)Man = molecular target: GlcNAc(b1-3)Man
# Procedure, shortened: as §1
# [8] = molecular target: GlcNAc(b1-3)[GlcNAc(b1-4)][GlcNAc(b1-6)]GlcNAc
# Procedure, shortened: as §1
# [9] = molecular target: GlcNAc(b1-3)[GlcNAc(b1-6)]Gal(b1-4)GlcNAc
# Procedure, shortened: as §1
# [10] = molecular target: GlcNAc(b1-3)[GlcNAc(b1-6)]GalNAc
# Procedure, shortened: as §1
# [11] = molecular target: GlcNAc(b1-4)Gal(b1-4)GlcNAc
# Procedure, shortened: as §1
# GlcNAc(b1-4)GlcNAc = molecular target: GlcNAc(b1-4)GlcNAc
# Procedure, shortened: as §1
# [12] = molecular target: GlcNAc(b1-4)GlcNAc(b1-4)GlcNAc
# Procedure, shortened: as §1
# [13] = molecular target: GlcNAc(b1-4)GlcNAc(b1-4)GlcNAc(b1-4)GlcNAc(b1-4)GlcNAc
# Procedure, shortened: as §1
# [14] = molecular target: GlcNAc(b1-4)GlcNAc(b1-4)GlcNAc(b1-4)GlcNAc(b1-4)GlcNAc(b1-4)GlcNAc
# Procedure, shortened: as §1
# [15] = molecular target: GlcNAc(b1-4)[GlcNAc(b1-6)]GalNAc
# Procedure, shortened: as §1
# [16] = molecular target: GlcNAc(b1-6)Gal(b1-4)GlcNAc
# Procedure, shortened: as §1
# GlcNAc(b1-6)GalNAc = molecular target: GlcNAc(b1-6)GalNAc
# Procedure, shortened: as §1
# [17] = molecular target: GlcNAc6S(b1-3)Gal(b1-4)GlcNAc
# Procedure, shortened: as §1
# Kdn(a2-3)Gal(b1-3)GalNAc = molecular target: Kdn(a2-3)Gal(b1-3)GalNAc
# Procedure, shortened: as §1
# Kdn(a2-3)Gal(b1-3)GlcNAc = molecular target: Kdn(a2-3)Gal(b1-3)GlcNAc
# Procedure, shortened: as §1
# Kdn(a2-3)Gal(b1-4)Glc = molecular target: Kdn(a2-3)Gal(b1-4)Glc
# Procedure, shortened: as §1
# Kdn(a2-3)Gal(b1-4)GlcNAc = molecular target: Kdn(a2-3)Gal(b1-4)GlcNAc
# Procedure, shortened: as §1
# [18] = molecular target: Kdn(a2-3)Gal(b1-4)[Fuc(a1-3)]GlcNAc
# Procedure, shortened: as §1
# Kdn(a2-6)Gal(b1-4)GlcNAc = molecular target: Kdn(a2-6)Gal(b1-4)GlcNAc
# Procedure, shortened: as §1
# [19] = molecular target: Man(a1-2)Man(a1-2)Man(a1-3)Man
# Procedure, shortened: as §1
# [20] = molecular target: Man(a1-2)Man(a1-2)Man(a1-6)[Man(a1-3)]Man
# Procedure, shortened: as §1
# Man(a1-2)Man(a1-3)Man = molecular target: Man(a1-2)Man(a1-3)Man
# Procedure, shortened: as §1
# [21] = molecular target: Man(a1-2)Man(a1-3)[Man(a1-2)Man(a1-6)]Man
# Procedure, shortened: as §1
# [22] = molecular target: Man(a1-2)Man(a1-3)[Man(a1-2)Man(a1-6)]Man(a1-6)[Man(a1-2)Man(a1-2)Man(a1-3)]Man
# Procedure, shortened: as §1
# [23] = molecular target: Man(a1-2)Man(a1-3)[Man(a1-2)Man(a1-6)]Man(a1-6)[Man(a1-2)Man(a1-2)Man(a1-3)]Man(b1-4)GlcNAc(b1-4)GlcNAc
# Procedure, shortened: as §1
# [24] = molecular target: Man(a1-2)Man(a1-3)[Man(a1-6)]Man(a1-6)[Man(a1-2)Man(a1-3)]Man(b1-4)GlcNAc(b1-4)GlcNAc
# Procedure, shortened: as §1
# [25] = molecular target: Man(a1-2)Man(a1-6)[Man(a1-3)]Man(a1-6)[Man(a1-2)Man(a1-2)Man(a1-3)]Man
# Procedure, shortened: as §1
# [26] = molecular target: Man(a1-2)Man(a1-6)[Man(a1-3)]Man(a1-6)[Man(a1-2)Man(a1-2)Man(a1-3)]Man(b1-4)GlcNAc(b1-4)GlcNAc
# Procedure, shortened: as §1
# Man(a1-3)[Man(a1-6)]Man = molecular target: Man(a1-3)[Man(a1-6)]Man
# Procedure, shortened: as §1
binder,measurement,setting,value
B1,glycan array binding signal (z-score),[1],0.395
same,glycan array binding signal (z-score),[2],-0.41
same,glycan array binding signal (z-score),[3],-0.584
same,glycan array binding signal (z-score),[4],0.26
same,glycan array binding signal (z-score),[5],-0.615
same,glycan array binding signal (z-score),[6],-0.157
same,glycan array binding signal (z-score),[7],-0.495
same,glycan array binding signal (z-score),GlcNAc(b1-3)GalNAc,-0.234
same,glycan array binding signal (z-score),GlcNAc(b1-3)Man,0.339
same,glycan array binding signal (z-score),[8],-0.159
same,glycan array binding signal (z-score),[9],-0.418
same,glycan array binding signal (z-score),[10],-0.468
same,glycan array binding signal (z-score),[11],-0.28
same,glycan array binding signal (z-score),GlcNAc(b1-4)GlcNAc,-0.405
same,glycan array binding signal (z-score),[12],-0.278
same,glycan array binding signal (z-score),[13],0.186
same,glycan array binding signal (z-score),[14],0.043
same,glycan array binding signal (z-score),[15],-0.627
same,glycan array binding signal (z-score),[16],-0.453
same,glycan array binding signal (z-score),GlcNAc(b1-6)GalNAc,-0.174
same,glycan array binding signal (z-score),[17],-0.005
same,glycan array binding signal (z-score),Kdn(a2-3)Gal(b1-3)GalNAc,-0.323
same,glycan array binding signal (z-score),Kdn(a2-3)Gal(b1-3)GlcNAc,-0.245
same,glycan array binding signal (z-score),Kdn(a2-3)Gal(b1-4)Glc,-0.262
same,glycan array binding signal (z-score),Kdn(a2-3)Gal(b1-4)GlcNAc,-0.392
same,glycan array binding signal (z-score),[18],-0.055
same,glycan array binding signal (z-score),Kdn(a2-6)Gal(b1-4)GlcNAc,-0.331
same,glycan array binding signal (z-score),[19],0.925
same,glycan array binding signal (z-score),[20],-0.218
same,glycan array binding signal (z-score),Man(a1-2)Man(a1-3)Man,-0.335
same,glycan array binding signal (z-score),[21],-0.176
same,glycan array binding signal (z-score),[22],-0.418
same,glycan array binding signal (z-score),[23],0.314
same,glycan array binding signal (z-score),[24],-0.154
same,glycan array binding signal (z-score),[25],0.102
same,glycan array binding signal (z-score),[26],0.36
same,glycan array binding signal (z-score),Man(a1-3)[Man(a1-6)]Man,-0.457
